{"source": "patent US10889573B2", "about": "“Anthelmintic quinoline-3-carboxamide derivatives” (Bayer Animal Health GMBH, priority 2016, dated 2021)", "note": "Some entries share one result that the patent states for a list of compounds. At least one compound was matched to its structure with a doubt left."}
{"target": "C. elegans Slo-1a (Caenorhabditis elegans, UniProt Q95V25)", "sequence (Q95V25 whole entry)": "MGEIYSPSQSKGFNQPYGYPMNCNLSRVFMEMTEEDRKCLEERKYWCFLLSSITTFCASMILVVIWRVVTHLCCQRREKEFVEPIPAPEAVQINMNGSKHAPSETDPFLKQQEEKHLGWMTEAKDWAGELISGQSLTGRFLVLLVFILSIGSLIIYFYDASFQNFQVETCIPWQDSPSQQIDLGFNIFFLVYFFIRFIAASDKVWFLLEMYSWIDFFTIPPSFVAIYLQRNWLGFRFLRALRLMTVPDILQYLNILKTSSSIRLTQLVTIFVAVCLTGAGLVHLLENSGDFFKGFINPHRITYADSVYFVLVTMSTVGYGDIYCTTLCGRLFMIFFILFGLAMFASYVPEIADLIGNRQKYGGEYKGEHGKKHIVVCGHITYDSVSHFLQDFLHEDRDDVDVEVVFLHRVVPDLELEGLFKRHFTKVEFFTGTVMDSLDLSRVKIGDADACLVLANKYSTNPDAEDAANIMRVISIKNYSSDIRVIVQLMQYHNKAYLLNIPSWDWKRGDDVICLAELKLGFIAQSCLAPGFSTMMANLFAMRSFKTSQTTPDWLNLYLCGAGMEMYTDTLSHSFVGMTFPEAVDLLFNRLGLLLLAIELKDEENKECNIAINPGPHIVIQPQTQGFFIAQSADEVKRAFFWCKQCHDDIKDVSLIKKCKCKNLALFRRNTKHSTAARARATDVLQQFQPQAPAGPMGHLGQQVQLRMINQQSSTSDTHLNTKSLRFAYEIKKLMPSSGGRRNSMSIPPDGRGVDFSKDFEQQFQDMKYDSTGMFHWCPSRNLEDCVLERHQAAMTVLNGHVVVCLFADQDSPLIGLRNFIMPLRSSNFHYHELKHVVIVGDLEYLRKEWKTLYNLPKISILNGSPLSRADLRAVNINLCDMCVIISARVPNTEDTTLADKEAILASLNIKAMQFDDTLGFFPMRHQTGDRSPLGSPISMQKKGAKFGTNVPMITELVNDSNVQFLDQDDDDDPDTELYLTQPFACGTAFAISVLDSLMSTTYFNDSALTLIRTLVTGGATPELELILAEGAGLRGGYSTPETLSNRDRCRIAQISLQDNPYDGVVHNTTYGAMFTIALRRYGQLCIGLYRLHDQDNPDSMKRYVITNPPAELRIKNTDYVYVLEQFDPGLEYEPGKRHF", "conditions": "CHO cells expressing C. elegans Slo-1a, voltage sensitive dye"}
{"smiles": "O=C(N[C@H]1CCOc2ccccc21)c1cnc2c(-c3cccc(Cl)c3Cl)cccc2c1", "note": "[Example 376]", "pE50 (negative decadic logarithm of EC50)": "> 8,5"}
{"smiles": "COc1cc(-c2cccc3c(N(C)C)c(C(=O)N[C@H]4CCOc5ccccc54)cnc23)c(F)cn1", "note": "[Example 377]", "pE50 (negative decadic logarithm of EC50)": "> 8,5"}
{"smiles": "CN(C)c1c(C(=O)N[C@H]2CCOc3ccccc32)cnc2c(-c3ccnc(C#N)c3)cccc12", "note": "[Example 378]", "pE50 (negative decadic logarithm of EC50)": "7,5-8,5"}
{"smiles": "CN(C)c1c(C(=O)N[C@H]2CCOc3ccccc32)cnc2c(-c3ccnc(N)c3)cccc12", "note": "[Example 379]", "pE50 (negative decadic logarithm of EC50)": "6,5-7,5"}
{"smiles": "Cc1cc(-c2cccc3c(N(C)C)c(C(=O)N[C@H]4CCOc5ccccc54)cnc23)ccn1", "note": "[Example 380]", "pE50 (negative decadic logarithm of EC50)": "7,5-8,5"}
{"smiles": "Cc1cnccc1-c1cccc2c(N(C)C)c(C(=O)N[C@H]3CCOc4ccccc43)cnc12", "note": "[Example 381]", "pE50 (negative decadic logarithm of EC50)": "7,5-8,5"}
{"smiles": "CN(C)c1c(C(=O)N[C@H]2CCOc3ccccc32)cnc2c(-c3ccncc3Cl)cccc12", "note": "[Example 382]", "pE50 (negative decadic logarithm of EC50)": "> 8,5"}
{"smiles": "CN(C)c1c(C(=O)N[C@H]2CCOc3ccccc32)cnc2c(-c3ccncc3F)cccc12", "note": "[Example 383]", "pE50 (negative decadic logarithm of EC50)": "7,5-8,5"}
{"smiles": "CC(C)c1c(C(=O)N[C@H]2CCOc3ccccc32)cnc2c(-c3cc(Cl)cc(Cl)c3Cl)cccc12", "note": "[Example 386]", "pE50 (negative decadic logarithm of EC50)": "7,5-8,5"}
{"smiles": "Cc1cc(-c2cccc3c(N(C)C)c(C(=O)N[C@H]4CCOc5ccccc54)cnc23)sc1C#N", "note": "[Example 387]", "pE50 (negative decadic logarithm of EC50)": "> 8,5"}
{"smiles": "Cc1cc(-c2cccc3c(N(C)C)c(C(=O)N[C@H]4CCOc5ccccc54)cnc23)c(C)s1", "note": "[Example 388]", "pE50 (negative decadic logarithm of EC50)": "> 8,5"}
{"smiles": "CN(C)c1c(C(=O)N[C@H]2CCOc3ccccc32)cnc2c(-c3ccc(Cl)s3)cccc12", "note": "[Example 390]", "pE50 (negative decadic logarithm of EC50)": "6,5-7,5"}
{"smiles": "Cc1ccc(-c2cccc3c(N(C)C)c(C(=O)N[C@H]4CCOc5ccccc54)cnc23)s1", "note": "[Example 391]", "pE50 (negative decadic logarithm of EC50)": "7,5-8,5"}
{"smiles": "O=C(N[C@H]1CCOc2ccccc21)c1cnc2c(-c3cc(Cl)cc(Cl)c3)cccc2c1N1CCC(F)CC1", "note": "[Example 393]", "pE50 (negative decadic logarithm of EC50)": "7,5-8,5"}
{"smiles": "O=C(N[C@H]1CCOc2ccccc21)c1cnc2c(-c3cc(Cl)cc(Cl)c3)cccc2c1-c1ccc(=O)[nH]c1", "note": "[Example 397]", "pE50 (negative decadic logarithm of EC50)": "7,5-8,5"}
{"smiles": "CN(C)c1c(C(=O)N[C@H]2CCOc3ccccc32)cnc2c(-c3ccnc(N4CCOCC4)c3)cccc12", "note": "[Example 399]", "pE50 (negative decadic logarithm of EC50)": "6,5-7,5"}
{"smiles": "COc1cc(-c2cccc3c(N(C)C)c(C(=O)N[C@H]4CCOc5ccccc54)cnc23)c(Cl)cn1", "note": "[Example 400]", "pE50 (negative decadic logarithm of EC50)": "> 8,5"}
{"smiles": "COc1cnccc1-c1cccc2c(N(C)C)c(C(=O)N[C@H]3CCOc4ccccc43)cnc12", "note": "[Example 401]", "pE50 (negative decadic logarithm of EC50)": "6,5-7,5"}
{"smiles": "CN(C)c1c(C(=O)N[C@H]2CCOc3ccccc32)cnc2c(-c3ccnc(CO)c3)cccc12", "note": "[Example 402]", "pE50 (negative decadic logarithm of EC50)": "5,3-6,5"}
{"smiles": "CN(C)c1c(C(=O)N[C@H]2CCOc3ccccc32)cnc2c(-c3c(F)cncc3F)cccc12", "note": "[Example 403]", "pE50 (negative decadic logarithm of EC50)": "7,5-8,5"}
{"smiles": "O=C(N[C@H]1CCOc2ccccc21)c1cnc2c(-c3cc(Cl)cc(Cl)c3)cccc2c1C1CCC1", "note": "[Example 404]", "pE50 (negative decadic logarithm of EC50)": "> 8,5"}
{"smiles": "O=C(N[C@H]1CCOc2ccccc21)c1cnc2c(-c3cccc(Cl)c3Cl)cccc2c1NCCO", "note": "[Example 405]", "pE50 (negative decadic logarithm of EC50)": "7,5-8,5"}
{"smiles": "CC(C)c1c(C(=O)N[C@H]2CCOc3ccccc32)cnc2c(-c3cccc(Cl)c3)cccc12", "note": "[Example 406]", "pE50 (negative decadic logarithm of EC50)": "> 8,5"}
{"smiles": "CC(C)c1c(C(=O)N[C@H]2CCOc3ccccc32)cnc2c(-c3cccc(OC(F)(F)F)c3)cccc12", "note": "[Example 407]", "pE50 (negative decadic logarithm of EC50)": "> 8,5"}
{"smiles": "CC(C)c1c(C(=O)N[C@H]2CCOc3ccccc32)cnc2c(-c3cccc(Cl)c3F)cccc12", "note": "[Example 409]", "pE50 (negative decadic logarithm of EC50)": "> 8,5"}
{"smiles": "CC(C)c1c(C(=O)N[C@H]2CCOc3ccccc32)cnc2c(-c3cc(Cl)ccc3F)cccc12", "note": "[Example 410]", "pE50 (negative decadic logarithm of EC50)": "> 8,5"}
{"smiles": "Nc1ncc(-c2c(C(=O)N[C@H]3CCOc4ccccc43)cnc3c(-c4cc(Cl)cc(Cl)c4)cccc23)cn1", "note": "[Example 412]", "pE50 (negative decadic logarithm of EC50)": "7,5-8,5"}
{"smiles": "CN(C)c1c(C(=O)N[C@H]2CCOc3ccccc32)cnc2c(-c3cc(F)nc(F)c3)cccc12", "note": "[Example 413]", "pE50 (negative decadic logarithm of EC50)": "> 8,5"}
{"smiles": "CC(C)Oc1cc(-c2cccc3c(N(C)C)c(C(=O)N[C@H]4CCOc5ccccc54)cnc23)c(F)cn1", "note": "[Example 416]", "pE50 (negative decadic logarithm of EC50)": "> 8,5"}
{"smiles": "CCOc1cc(-c2cccc3c(N(C)C)c(C(=O)N[C@H]4CCOc5ccccc54)cnc23)c(F)cn1", "note": "[Example 417]", "pE50 (negative decadic logarithm of EC50)": "> 8,5"}
{"smiles": "CC(C)c1c(C(=O)N[C@H]2CCOc3ccccc32)cnc2c(-c3cc(F)ccc3Cl)cccc12", "note": "[Example 418]", "pE50 (negative decadic logarithm of EC50)": "> 8,5"}
{"smiles": "CC(C)c1c(C(=O)N[C@H]2CCOc3ccccc32)cnc2c(-c3cc(F)cc(Cl)c3)cccc12", "note": "[Example 419]", "pE50 (negative decadic logarithm of EC50)": "> 8,5"}
{"smiles": "CC(C)c1c(C(=O)N[C@H]2CCOc3ccccc32)cnc2c(-c3cccc(C(F)(F)F)c3Cl)cccc12", "note": "[Example 420]", "pE50 (negative decadic logarithm of EC50)": "> 8,5"}
{"smiles": "CC(C)c1c(C(=O)N[C@H]2CCOc3ccccc32)cnc2c(-c3cccc(F)c3Cl)cccc12", "note": "[Example 421]", "pE50 (negative decadic logarithm of EC50)": "> 8,5"}
{"smiles": "Cc1cc(-c2cccc3c(C(C)C)c(C(=O)N[C@H]4CCOc5ccccc54)cnc23)c(C)s1", "note": "[Example 422]", "pE50 (negative decadic logarithm of EC50)": "> 8,5"}
{"smiles": "CC(C)c1c(C(=O)N[C@H]2CCOc3ccccc32)cnc2c(-c3cc(Cl)sc3Cl)cccc12", "note": "[Example 423]", "pE50 (negative decadic logarithm of EC50)": "> 8,5"}
{"smiles": "Cc1cc(-c2c(F)ccc3c(C(C)C)c(C(=O)N[C@H]4CCOc5ccccc54)cnc23)c(C)s1", "note": "[Example 425]", "pE50 (negative decadic logarithm of EC50)": "> 8,5"}
{"smiles": "CC(C)c1c(C(=O)N[C@H]2CCOc3ccccc32)cnc2c(-c3cc(Cl)sc3Cl)c(F)ccc12", "note": "[Example 426]", "pE50 (negative decadic logarithm of EC50)": "> 8,5"}
{"smiles": "CN(C)c1c(C(=O)N[C@H]2CCOc3ccccc32)cnc2c(-c3cc(Cl)cc(Cl)c3)cc(C#N)cc12", "note": "[Example 428]", "pE50 (negative decadic logarithm of EC50)": "> 8,5"}
{"smiles": "CC(C)c1c(C(=O)N[C@H]2CCOc3ccccc32)cnc2c(-c3cc(Cl)cc(C(F)(F)F)c3)cccc12", "note": "[Example 431]", "pE50 (negative decadic logarithm of EC50)": "> 8,5"}
{"smiles": "CN(C)Cc1c(C(=O)N[C@H]2CCOc3ccccc32)cnc2c(-c3cc(Cl)cc(Cl)c3)cccc12", "note": "[Example 432]", "pE50 (negative decadic logarithm of EC50)": "6,5-7,5"}
{"smiles": "CN(C)c1c(C(=O)N[C@H]2CCOc3ccccc32)cnc2c(-c3cc(C(F)(F)F)ccc3C(F)(F)F)cccc12", "note": "[Example 433]", "pE50 (negative decadic logarithm of EC50)": "7,5-8,5"}
{"smiles": "CN(C)c1c(C(=O)N[C@H]2CCOc3ccccc32)cnc2c(-c3cc(F)ccc3C(F)(F)F)cccc12", "note": "[Example 434]", "pE50 (negative decadic logarithm of EC50)": "7,5-8,5"}
{"smiles": "CN(C)c1c(C(=O)N[C@H]2CCOc3ccccc32)cnc2c(-c3cc(C#N)ccc3Cl)cccc12", "note": "[Example 435]", "pE50 (negative decadic logarithm of EC50)": "> 8,5"}
{"smiles": "Cc1ccc(F)cc1-c1cccc2c(N(C)C)c(C(=O)N[C@H]3CCOc4ccccc43)cnc12", "note": "[Example 436]", "pE50 (negative decadic logarithm of EC50)": "> 8,5"}
{"smiles": "CC(C)c1c(C(=O)N[C@H]2CCOc3ccccc32)cnc2c(-c3cc(Cl)c(F)c(Cl)c3)cccc12", "note": "[Example 438]", "pE50 (negative decadic logarithm of EC50)": "> 8,5"}
{"smiles": "O=C(N[C@H]1CCOc2ccccc21)c1cnc2c(-c3cc(Cl)cc(Cl)c3)cccc2c1-c1c[nH]c(=O)c(F)c1", "note": "[Example 439]", "pE50 (negative decadic logarithm of EC50)": "6,5-7,5"}
{"smiles": "Nc1c(C(=O)N[C@H]2CCOc3ccccc32)cnc2c(-c3cccc(Cl)c3Cl)cccc12", "note": "[Example 440]", "pE50 (negative decadic logarithm of EC50)": "5,3-6,5"}
{"smiles": "O=C(N[C@H]1CCOc2ccccc21)c1cnc2c(-c3ccc(Cl)s3)cccc2c1N1CCOCC1", "note": "[Example 443]", "pE50 (negative decadic logarithm of EC50)": "7,5-8,5"}
{"smiles": "Cc1cc(Cl)c(F)c(-c2cccc3c(C(C)C)c(C(=O)N[C@H]4CCOc5ccccc54)cnc23)c1", "note": "[Example 444]", "pE50 (negative decadic logarithm of EC50)": "> 8,5"}
{"smiles": "CC(C)c1c(C(=O)N[C@H]2CCOc3ccccc32)cnc2c(-c3ccc(F)c(Cl)c3)cccc12", "note": "[Example 446]", "pE50 (negative decadic logarithm of EC50)": "> 8,5"}
{"smiles": "Cc1ccc(C)c(-c2cccc3c(C(C)C)c(C(=O)N[C@H]4CCOc5ccccc54)cnc23)c1", "note": "[Example 447]", "pE50 (negative decadic logarithm of EC50)": "7,5-8,5"}
{"smiles": "Cc1cc(F)cc(-c2cccc3c(C(C)C)c(C(=O)N[C@H]4CCOc5ccccc54)cnc23)c1", "note": "[Example 448]", "pE50 (negative decadic logarithm of EC50)": "> 8,5"}
{"smiles": "CC(C)c1c(C(=O)N[C@H]2CCOc3ccccc32)cnc2c(-c3cc(F)c(F)c(F)c3)cccc12", "note": "[Example 449]", "pE50 (negative decadic logarithm of EC50)": "> 8,5"}
{"smiles": "CC(C)c1c(C(=O)N[C@H]2CCOc3ccccc32)cnc2c(-c3cc(F)cc(F)c3F)cccc12", "note": "[Example 450]", "pE50 (negative decadic logarithm of EC50)": "> 8,5"}
{"smiles": "Cc1ccc(C(F)(F)F)cc1-c1cccc2c(C(C)C)c(C(=O)N[C@H]3CCOc4ccccc43)cnc12", "note": "[Example 451]", "pE50 (negative decadic logarithm of EC50)": "> 8,5"}
{"smiles": "CC(C)c1c(C(=O)N[C@H]2CCOc3ccccc32)cnc2c(-c3cc(Cl)ccc3Cl)cccc12", "note": "[Example 453]", "pE50 (negative decadic logarithm of EC50)": "> 8,5"}
{"smiles": "O=C(N[C@H]1CCOc2ccccc21)c1cnc2c(-c3cc(Cl)cc(Cl)c3)cccc2c1-c1cn[nH]c1", "note": "[Example 454]", "pE50 (negative decadic logarithm of EC50)": "7,5-8,5"}
{"smiles": "CC(C)c1c(C(=O)N[C@H]2CCOc3ccccc32)cnc2c(-c3cc(Cl)cc(Cl)c3)c(F)ccc12", "note": "[Example 455]", "pE50 (negative decadic logarithm of EC50)": "> 8,5"}
{"smiles": "CN(C)c1c(C(=O)N[C@H]2CCOc3ccccc32)cnc2c(-c3cc(Cl)cs3)cccc12", "note": "[Example 457]", "pE50 (negative decadic logarithm of EC50)": "7,5-8,5"}
{"smiles": "CN(C)c1c(C(=O)N[C@H]2CCOc3ccccc32)cnc2c(-c3ccc(C(F)(F)F)s3)cccc12", "note": "[Example 458]", "pE50 (negative decadic logarithm of EC50)": "7,5-8,5"}
{"smiles": "CN(C)c1c(C(=O)N[C@H]2CCOc3ccccc32)cnc2c(-c3ccc(F)s3)cccc12", "note": "[Example 459]", "pE50 (negative decadic logarithm of EC50)": "6,5-7,5"}
{"smiles": "CN(C)c1c(C(=O)N[C@H]2CCOc3ccccc32)cnc2c(-c3c(Cl)cncc3Cl)cccc12", "note": "[Example 460]", "pE50 (negative decadic logarithm of EC50)": "7,5-8,5"}
